Test results as given in article PMC4336329 (PLoS ONE, 2015).
Hit rate of the full screen: of about 310,000 compounds, about 2,200 (0.71%) showed an effect of 50% or more. Effects have a minus sign here. The list shows a part of the results.

What follows are molecules tested against human ether-à-go-go-related gene (hERG) potassium channel (human, UniProt Q12809) (assay: primary screen, population patch clamp on CHO cells stably expressing hERG).
Chain of human ether-à-go-go-related gene (hERG) potassium channel (Q12809 whole entry, looked up): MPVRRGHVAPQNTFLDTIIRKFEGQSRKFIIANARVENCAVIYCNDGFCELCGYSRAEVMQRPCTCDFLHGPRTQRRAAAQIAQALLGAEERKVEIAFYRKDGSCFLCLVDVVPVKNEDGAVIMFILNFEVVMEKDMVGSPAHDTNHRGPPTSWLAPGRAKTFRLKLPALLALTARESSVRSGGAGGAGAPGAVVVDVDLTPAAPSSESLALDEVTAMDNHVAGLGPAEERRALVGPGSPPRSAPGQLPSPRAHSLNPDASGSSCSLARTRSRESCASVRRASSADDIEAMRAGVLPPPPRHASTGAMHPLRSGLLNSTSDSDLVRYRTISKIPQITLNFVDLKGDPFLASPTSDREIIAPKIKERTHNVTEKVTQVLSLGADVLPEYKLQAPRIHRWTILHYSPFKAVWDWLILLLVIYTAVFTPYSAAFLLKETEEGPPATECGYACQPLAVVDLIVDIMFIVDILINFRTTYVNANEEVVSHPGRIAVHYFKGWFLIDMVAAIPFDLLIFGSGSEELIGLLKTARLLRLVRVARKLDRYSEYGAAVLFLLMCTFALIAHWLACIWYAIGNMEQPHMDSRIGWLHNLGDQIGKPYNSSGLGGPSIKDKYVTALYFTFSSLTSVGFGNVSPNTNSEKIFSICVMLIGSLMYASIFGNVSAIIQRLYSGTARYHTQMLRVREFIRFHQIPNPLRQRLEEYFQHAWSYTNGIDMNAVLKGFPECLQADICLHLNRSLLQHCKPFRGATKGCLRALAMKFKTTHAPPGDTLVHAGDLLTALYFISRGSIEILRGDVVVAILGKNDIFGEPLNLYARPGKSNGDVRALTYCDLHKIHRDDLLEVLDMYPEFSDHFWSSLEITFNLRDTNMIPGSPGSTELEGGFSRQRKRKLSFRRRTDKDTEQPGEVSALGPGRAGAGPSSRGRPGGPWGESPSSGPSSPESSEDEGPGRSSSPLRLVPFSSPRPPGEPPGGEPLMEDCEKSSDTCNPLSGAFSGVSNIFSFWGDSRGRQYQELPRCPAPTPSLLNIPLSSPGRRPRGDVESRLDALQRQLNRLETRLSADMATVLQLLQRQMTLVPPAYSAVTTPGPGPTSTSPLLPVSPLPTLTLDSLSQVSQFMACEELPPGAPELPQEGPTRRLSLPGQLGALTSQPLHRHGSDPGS
With `C/C=C1/C[N+]2(C)CCC34C(=C(C=O)[C@H]1C[C@@H]32)Nc1ccccc14.[Cl-]` (stereo partly shown) the “hERG current change (%, negative = inhibition) at 1uM” value was 12.4%. `CCOc1ccccc1NC(=O)CCN(c1ccc(C)cc1)S(=O)(=O)c1ccccc1` was tested, and the “hERG current change (%, negative = inhibition) at 1uM” value was 6.15%. `Cc1cccc(/C=N/n2c(COc3ccccc3)n[nH]c2=S)c1` was tested, and the “hERG current change (%, negative = inhibition) at 1uM” value was 14.9%. In the case of `O=C(CN1C(=O)S/C(=C\c2ccc(F)cc2)C1=O)Nc1cccc(S(=O)(=O)NCc2ccco2)c1`, the “hERG current change (%, negative = inhibition) at 1uM” value was 3.98%. `O=C(O)c1cccc2c1NC(C(=O)O)C1CC(Sc3ccccc3[N+](=O)[O-])C(Cl)C21` (stereo not shown) was tested, and the “hERG current change (%, negative = inhibition) at 1uM” value was 10.4%. `CCN1CCN(C(=O)c2cc3c(=O)n4ccccc4nc3s2)CC1` was tested, and the “hERG current change (%, negative = inhibition) at 1uM” value was 8.05%. In the case of `CCCOc1ccc(/C=c2\sc3nc(-c4ccco4)nn3c2=O)cc1OCC`, the “hERG current change (%, negative = inhibition) at 1uM” value was 5.32%. For `CCOc1ccc(N=C2NN=C(c3cc(C)n(CC4CCCO4)c3C)CS2)cc1` (stereo not shown), the “hERG current change (%, negative = inhibition) at 1uM” value was 10.8%. In the case of `CN(Cc1ccc(-n2cccn2)cc1)Cc1cn(C)nc1-c1ccccc1F`, the “hERG current change (%, negative = inhibition) at 1uM” value was -63.5%. `CCOc1ccc(N(CC(=O)NCc2ccco2)S(=O)(=O)c2ccc(OC)c(OC)c2)cc1` was tested, and the “hERG current change (%, negative = inhibition) at 1uM” value was 6.77%. With `COC(=O)C1CC(=O)N(c2ccc(C)cc2)C1` (stereo not shown) the “hERG current change (%, negative = inhibition) at 1uM” value was 4.3%. For `O=P(O)(CCc1ccccc1)C(O)c1ccccc1` (stereo not shown), the “hERG current change (%, negative = inhibition) at 1uM” value was 5.09%. For `Cc1cc2c(=O)n(Cc3ccco3)c(SCC(=O)c3ccc(Cl)s3)nc2s1`, the “hERG current change (%, negative = inhibition) at 1uM” value was 4.71%. With `CCC(=O)Nc1ccc(S(=O)(=O)N2CCc3ccccc3C2)cc1` the “hERG current change (%, negative = inhibition) at 1uM” value was 5.47%. For `Cc1ccc(N2C(=O)CC(N3CCN(C4CCc5ccccc5C4)CC3)C2=O)cc1` (stereo not shown), the “hERG current change (%, negative = inhibition) at 1uM” value was -59%. With `CN(C)S(=O)(=O)c1ccc2c(c1)Cc1cc(S(=O)(=O)N(C)C)ccc1-2` the “hERG current change (%, negative = inhibition) at 1uM” value was 10.2%. `CO[C@H]1O[C@@H]2O[C@@]3(C)CC[C@H]4[C@H](C)CC[C@@H]([C@H]1C)[C@@]24OO3` was tested, and the “hERG current change (%, negative = inhibition) at 1uM” value was 20.2%. With `O=C1N(CCCl)c2ccc(Br)cc2C12OCCO2` the “hERG current change (%, negative = inhibition) at 1uM” value was 16.7%. With `Cc1ccc(S(=O)(=O)N(C)/N=C/c2ccc(N(C)C)cc2)cc1` the “hERG current change (%, negative = inhibition) at 1uM” value was 6.26%. With `CCOc1ccc(CCNC(=O)c2ccc(OCc3c(C)noc3C)cc2)cc1OCC` the “hERG current change (%, negative = inhibition) at 1uM” value was 14%. For `COc1ccc(/C=C/c2c([N+](=O)[O-])c(=O)n(C)c(=O)n2C)cc1OC`, the “hERG current change (%, negative = inhibition) at 1uM” value was 5.36%. With `CCOC(=O)C1CCN(C(=O)Cn2nc(C)n3c(cc4cc(C)ccc43)c2=O)CC1` the “hERG current change (%, negative = inhibition) at 1uM” value was 4.86%. For `O=C(Nc1nccs1)c1ccc(Br)s1`, the “hERG current change (%, negative = inhibition) at 1uM” value was 13.4%. For `Cc1ccc(Cn2nnnc2CN2CCC(O)(c3ccccc3F)CC2)cc1`, the “hERG current change (%, negative = inhibition) at 1uM” value was -2.96%. For `CCOc1ccc(C2C3=C(CC(C)(C)CC3=O)N(CC(=O)O)C3=C2C(=O)CC(C)(C)C3)cc1OCC`, the “hERG current change (%, negative = inhibition) at 1uM” value was 5.01%. With `COCCn1c(=NC(=O)CCS(=O)(=O)c2ccccc2)sc2ccccc21` the “hERG current change (%, negative = inhibition) at 1uM” value was 3.57%. `CCN(Cc1ccccc1)S(=O)(=O)c1ccc(S(=O)(=O)N2CCN(C)CC2)cc1` was tested, and the “hERG current change (%, negative = inhibition) at 1uM” value was 12.8%. `CCCSc1nnc2n(-c3ccccc3OC)c(=O)c3c4c(sc3n12)CCC4` was tested, and the “hERG current change (%, negative = inhibition) at 1uM” value was -6.18%. `Cc1nc2ccc(NS(=O)(=O)c3ccc(C)c(C)c3)cc2s1` was tested, and the “hERG current change (%, negative = inhibition) at 1uM” value was 10.6%. With `CN(C)c1ccc(-c2nnn(CC(=O)Nc3ccc4c(c3)OCCO4)n2)cc1` the “hERG current change (%, negative = inhibition) at 1uM” value was 23.8%. `Nc1nonc1NN=C1CCCCC1` was tested, and the “hERG current change (%, negative = inhibition) at 1uM” value was 14.6%. For `CC(C)CC1(C(=O)NCc2ccccn2)C=CCN1C(=O)c1ccccc1` (stereo not shown), the “hERG current change (%, negative = inhibition) at 1uM” value was 11.3%. For `FC(F)(F)c1nc2ccccc2n2c(-c3ccc(Cl)cc3Cl)nnc12`, the “hERG current change (%, negative = inhibition) at 1uM” value was 20.4%. In the case of `O=C(CCc1nc2ccccc2c(=O)[nH]1)Nc1nc(-c2cccs2)cs1`, the “hERG current change (%, negative = inhibition) at 1uM” value was 2.05%. With `C/C(N)=C(/C#N)C(=O)COC(=O)C1CCN(C(=O)c2ccc(Cl)cc2)CC1` the “hERG current change (%, negative = inhibition) at 1uM” value was 6.14%. `Cn1c(=O)c2c(nc(NCc3cccnc3)n2Cc2cccc(C(F)(F)F)c2)n(C)c1=O` was tested, and the “hERG current change (%, negative = inhibition) at 1uM” value was 6.35%. `CCOc1ccc2[nH]cc(C(=O)NCCCN3CCOCC3)c(=O)c2c1` was tested, and the “hERG current change (%, negative = inhibition) at 1uM” value was 5.98%. With `O=[N+]([O-])c1ccc(N2CCN(CCOc3nonc3-c3ccccc3)CC2)c(Cl)c1` the “hERG current change (%, negative = inhibition) at 1uM” value was 8.86%. For `Cc1ccc(C(=O)NC(C)c2ccc(-n3ccnc3)cc2)c(C)c1` (stereo not shown), the “hERG current change (%, negative = inhibition) at 1uM” value was -18.4%. For `CCCCNC(=O)C(=O)N/N=C/c1cccc(Br)c1`, the “hERG current change (%, negative = inhibition) at 1uM” value was 3.29%. In the case of `COc1ccc(C(=O)NCc2nnc(SCC(=O)Nc3cc(C)on3)o2)cc1OC`, the “hERG current change (%, negative = inhibition) at 1uM” value was 5.06%. For `O=C(COc1ccccc1Cl)Nc1ccc(C(=O)N2CCCCC2)cc1`, the “hERG current change (%, negative = inhibition) at 1uM” value was -3.76%. In the case of `N#CCCn1ncc2ccccc21`, the “hERG current change (%, negative = inhibition) at 1uM” value was 14%. In the case of `CC(C)(C)Nc1nc2nonc2nc1NC(C)(C)C`, the “hERG current change (%, negative = inhibition) at 1uM” value was 12.2%. `CCOC(=O)c1c(-c2ccccc2)oc2ccc(OCC)cc12` was tested, and the “hERG current change (%, negative = inhibition) at 1uM” value was 10.8%. For `O=C(CC1C(=O)NCCN1CC(c1ccccc1)c1ccccc1)NC1CC1` (stereo not shown), the “hERG current change (%, negative = inhibition) at 1uM” value was 29.1%. With `COc1ccccc1C(=O)NCCC(=O)Nc1cccc(C)n1` the “hERG current change (%, negative = inhibition) at 1uM” value was 10.9%. In the case of `CSc1ccc(/C=C/C(=O)OCC(=O)c2ccc[nH]2)cc1`, the “hERG current change (%, negative = inhibition) at 1uM” value was 8.26%. For `O=C(CCCCCN1C(=O)c2ccccc2C1=O)Nc1ccccc1`, the “hERG current change (%, negative = inhibition) at 1uM” value was 5.83%. For `Oc1c(C(c2ccccn2)N2CCOCC2)ccc2cccnc12` (stereo not shown), the “hERG current change (%, negative = inhibition) at 1uM” value was 20.1%. With `CN(Cc1cccnc1)C(=O)CC1C(=O)NCCN1Cc1ccc(-c2ccccc2)cc1` (stereo not shown) the “hERG current change (%, negative = inhibition) at 1uM” value was 2.2%. With `COc1cc(OC)c(-c2nc3c[n+](CC(=O)c4ccccc4)ccc3n2C)cc1OC.[Br-]` the “hERG current change (%, negative = inhibition) at 1uM” value was 12%. For `Oc1ccccc1-c1nc(NCCN2CCOCC2)c2ccccc2n1`, the “hERG current change (%, negative = inhibition) at 1uM” value was 13%. `CCN(CC)c1nc(-c2nn[nH]n2)nc(N(CC)CC)n1` was tested, and the “hERG current change (%, negative = inhibition) at 1uM” value was 15%. With `COc1cccc(NC(=O)N2C3CCCC2CC(NC(=O)C2CC2)C3)c1` (stereo not shown) the “hERG current change (%, negative = inhibition) at 1uM” value was 12%.
